± gives the standard deviation of the averaged measurements. This is one part of the list.

The subject of the test is PfAP2-EXP AP2 domain (GST-tagged). As to the kind of experiment: gcPBM binding intensity (ln(normalized median fluorescence intensity)); higher = stronger DNA binding. A digest of the protocol: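 Each value is the highest Masliner-normalised natural-log median intensity across replicate spots of either orientation of a probe. The probes were primer-extended double-stranded 36-bp intergenic genomic sequences on an Agilent 4 × 180k array, alongside negative controls, exposed for 1 h to GST-tagged P. falciparum DNA-binding domains expressed in E. coli. Bound protein was picked up with Alexa488 anti-GST antibody and scanned at 488 nm.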
“TAAACATTTTTGCACGCACACAAAAAAAAAATAAAA [CACACA_site167]”: the “gcPBM binding intensity (ln)” value stood at 8.6 ± 0.3.

Regarding “TTTTTAACATATCATACACACAACAACTTTTTATAG [CACACA_site1962]”, the “gcPBM binding intensity (ln)” value turned out to be 8.47 ± 0.42.

In the case of “CAAGCCCTTCTGCTTACACACAGTAATTATTGTGTA [CACACA_site2953]”, the “gcPBM binding intensity (ln)” value was found to be 8.48 ± 0.44.

Turning to “TAAAAATATATACATACATGCATACATATATATGTA [TGCATGCA_site774]”, the “gcPBM binding intensity (ln)” value came out at 8.52 ± 0.25.

For the sequence “CATTCATTTATTAATTGTACTTTTAAGGTTAAATAA [XGTACX_site5838]”, the “gcPBM binding intensity (ln)” value came out at 8.28 ± 0.28.

For “ATTATATATACACGCACACACACTTATATATATATA [CACACA_site9093]”, the “gcPBM binding intensity (ln)” value was found to be 9.97 ± 0.37.

Consider “TAGGAAAAGAAAAGCACACACATAAATAAATATATA [CACACA_site504]”, for which the “gcPBM binding intensity (ln)” value came to 8.66 ± 0.45.

With “TAATTTATTATATTTTGTACGTAAAATTATTATTGT [XGTACX_site8155]”, the “gcPBM binding intensity (ln)” value worked out at 8.43 ± 0.38.

Consider “AATATATATTTATATTGTACATATATATATATTTCT [XGTACX_site2603]”, for which the “gcPBM binding intensity (ln)” value was found to be 8.42 ± 0.44.

For the sequence “AATATTTATTTTACATGTACTTATTTTTCTTTTAAC [XGTACX_site3631]”, the “gcPBM binding intensity (ln)” value stood at 9.02 ± 0.38.

Take “CCATTAAATACATACACACCCACACCCAAAAAAAAA [CACACA_site4633]”: the “gcPBM binding intensity (ln)” value was found to be 9.04 ± 0.33.

Consider “AAAAAAAAAAATATAACACACAAAAAATTGTATCGA [CACACA_site1144]”, for which the “gcPBM binding intensity (ln)” value amounted to 8.28 ± 0.56.

On to “ACAAAATTTACAAAATGTACATATTGTAGATATTGT [XGTACX_site7618]”, for which the “gcPBM binding intensity (ln)” value is 8.34 ± 0.28.

Consider “ATATAGTAAAATTATACACACATGAATTTTCCCATA [CACACA_site3113]”, for which the “gcPBM binding intensity (ln)” value was 8.35 ± 0.32.

For “ATATAATGATAATATTGTACATGTTATATTTCAATA [XGTACX_site8645]”, the “gcPBM binding intensity (ln)” value is 8.36 ± 0.37.

As for “ATATATTTAATATTCACACATAATTATTTTTACTCT [CACACA_site5438]”, the “gcPBM binding intensity (ln)” value is 8.59 ± 0.38.

For “TTGTAATATCTTGTCACACATATATATATATATATA [CACACA_site4937]”, the “gcPBM binding intensity (ln)” value turned out to be 10.2 ± 0.57.

As to “TATAGATAAGAATATGCACACATTTTATTTTTTTTT [CACACA_site1982]”, the “gcPBM binding intensity (ln)” value was determined as 8.33 ± 0.2.

For “TTTTTAATTTATTAAGAAGTAAAGAATAACTCTTTT [TGCATGCA_negctrl_site101]”, the “gcPBM binding intensity (ln)” value was 7.74 ± 0.37.

Consider “AAACATTAAAATAACTCACACATTTTTCTAGTCTTC [CACACA_site4612]”, for which the “gcPBM binding intensity (ln)” value amounted to 8.36 ± 0.44.

In the case of “GTATTATCTTTTAATAGTACATATTTTTTTGAAACA [XGTACX_site4050]”, the “gcPBM binding intensity (ln)” value was 8.26 ± 0.28.

For “CATATAATATTTGAAACTATATATAAATATAAGGTA [TGCATGCA_negctrl_site19]”, the “gcPBM binding intensity (ln)” value was found to be 8.23 ± 0.34.

For the sequence “AATATATTTTTATATTGTACAAAAGAAAAAAAATAT [XGTACX_site1689]”, the “gcPBM binding intensity (ln)” value is 8.77 ± 0.47.

As to “ATTTATTCATAGACAACAAGAAAAAAAAAAAAAATT [CACACA_negctrl_site1168]”, the “gcPBM binding intensity (ln)” value was 8.37 ± 0.52.

Turning to “AGTTTTCCATGTTAATGTACTTAACAATACCATAAT [XGTACX_site209]”, the “gcPBM binding intensity (ln)” value came out at 8.9 ± 0.49.

Regarding “TATATCCATATTGTATGTACACATATAATACCAATG [XGTACX_site7230]”, the “gcPBM binding intensity (ln)” value is 8.56 ± 0.22.

For the sequence “CATACATACAGACACACACACATATATATATATATA [CACACA_site2920]”, the “gcPBM binding intensity (ln)” value is 10.1 ± 0.35.

“ATAAAAATACAGTTAACACACATGTGGATATATATG [CACACA_site3771]”: the “gcPBM binding intensity (ln)” value is 9.25 ± 0.44.

In the case of “AACATAAAAATGAACATACACACATATATATATATA [CACACA_site2497]”, the “gcPBM binding intensity (ln)” value was found to be 10.1 ± 0.28.

Regarding “AAACAAAAAAGTAAGAAAAGGGATGATTGGATCCAA [CACACA_negctrl_site1230]”, the “gcPBM binding intensity (ln)” value is 8.61 ± 0.64.

“AGATATTATAATTAATGTACAAAAAGAAAAAATAGA [XGTACX_site8964]”: the “gcPBM binding intensity (ln)” value was 8.87 ± 0.37.

On to “CATATGTATATGACTACACACAAGGGTGTACAGATA [CACACA_site4776]”, for which the “gcPBM binding intensity (ln)” value came to 8.37 ± 0.28.

Consider “TATTATTCTGTATTTGCATGTGATCATATATATGTA [TGCATGCA_site1053]”, for which the “gcPBM binding intensity (ln)” value worked out at 9.17 ± 0.37.

In the case of GTATATCATTTTGGGGTGCTTAAAAATAATGAATAC, the “gcPBM binding intensity (ln)” value is 9.05 ± 0.38.

For the sequence “TATATAACATAATATACACACATTATGTGCGTAATT [CACACA_site4073]”, the “gcPBM binding intensity (ln)” value is 8.44 ± 0.3.

Turning to “TTTTTTTTTTTTTATTGTACAAAGGTATAAAATAAT [XGTACX_site2396]”, the “gcPBM binding intensity (ln)” value stood at 8.61 ± 0.57.

“TTTTTTTTTTTTTATTGTACTAGTAGATATATATAC [XGTACX_site3463]”: the “gcPBM binding intensity (ln)” value is 8.5 ± 0.49.

Take “CCAATATATACATATATATAGTTATATATATTTCCT [TGCATGCA_negctrl_site38]”: the “gcPBM binding intensity (ln)” value turned out to be 8.38 ± 0.53.

Regarding “GTGTCAAATTTTATAACACACAAAAGATTATATAAG [CACACA_site4086]”, the “gcPBM binding intensity (ln)” value amounted to 8.46 ± 0.47.

“ATTAAAAATTAATATAAACACACAAAAATTAATAAA [CACACA_site8019]”: the “gcPBM binding intensity (ln)” value stood at 8.58 ± 0.37.

As for “TCCTCGCGTAATACTTTTCAAATAAAAAAAATAAAA [TGCATGCA_negctrl_site403]”, the “gcPBM binding intensity (ln)” value is 8.38 ± 0.38.

For the sequence “AAACATACTTGATGCAGTACACATTATAAGCACATA [XGTACX_site3359]”, the “gcPBM binding intensity (ln)” value stood at 8.78 ± 0.18.

Turning to “GGACTTAAATAAAATGGTACAGAATTTATATATATT [XGTACX_site8214]”, the “gcPBM binding intensity (ln)” value amounted to 8.4 ± 0.52.

As for “TAATGGAATACATATAGTACATAATATTACATACAT [XGTACX_site5737]”, the “gcPBM binding intensity (ln)” value is 8.36 ± 0.38.

Values taken from the supplement of paper PMC11417369.
